This note sets out measurements from publication PMC4336329 (PLoS ONE, 2015).

The structures appear in SMILES notation. Among all 310,000 compounds or so, about 2,200 (0.71%) showed an effect of 50% or more. The effect is printed as a negative number. This is one part of the list. Where a SMILES comes first, the peptide text is derived from it. The star is where a group is joined. Piperidide = C1CCN(*)CC1; PhAc = O=C(Cc1ccccc1)*

The target of this assay is human ether-à-go-go-related gene (hERG) potassium channel (human, UniProt Q12809). In words: primary screen, population patch clamp on CHO cells stably expressing hERG.
Sequence of human ether-à-go-go-related gene (hERG) potassium channel (Q12809 whole entry, looked up): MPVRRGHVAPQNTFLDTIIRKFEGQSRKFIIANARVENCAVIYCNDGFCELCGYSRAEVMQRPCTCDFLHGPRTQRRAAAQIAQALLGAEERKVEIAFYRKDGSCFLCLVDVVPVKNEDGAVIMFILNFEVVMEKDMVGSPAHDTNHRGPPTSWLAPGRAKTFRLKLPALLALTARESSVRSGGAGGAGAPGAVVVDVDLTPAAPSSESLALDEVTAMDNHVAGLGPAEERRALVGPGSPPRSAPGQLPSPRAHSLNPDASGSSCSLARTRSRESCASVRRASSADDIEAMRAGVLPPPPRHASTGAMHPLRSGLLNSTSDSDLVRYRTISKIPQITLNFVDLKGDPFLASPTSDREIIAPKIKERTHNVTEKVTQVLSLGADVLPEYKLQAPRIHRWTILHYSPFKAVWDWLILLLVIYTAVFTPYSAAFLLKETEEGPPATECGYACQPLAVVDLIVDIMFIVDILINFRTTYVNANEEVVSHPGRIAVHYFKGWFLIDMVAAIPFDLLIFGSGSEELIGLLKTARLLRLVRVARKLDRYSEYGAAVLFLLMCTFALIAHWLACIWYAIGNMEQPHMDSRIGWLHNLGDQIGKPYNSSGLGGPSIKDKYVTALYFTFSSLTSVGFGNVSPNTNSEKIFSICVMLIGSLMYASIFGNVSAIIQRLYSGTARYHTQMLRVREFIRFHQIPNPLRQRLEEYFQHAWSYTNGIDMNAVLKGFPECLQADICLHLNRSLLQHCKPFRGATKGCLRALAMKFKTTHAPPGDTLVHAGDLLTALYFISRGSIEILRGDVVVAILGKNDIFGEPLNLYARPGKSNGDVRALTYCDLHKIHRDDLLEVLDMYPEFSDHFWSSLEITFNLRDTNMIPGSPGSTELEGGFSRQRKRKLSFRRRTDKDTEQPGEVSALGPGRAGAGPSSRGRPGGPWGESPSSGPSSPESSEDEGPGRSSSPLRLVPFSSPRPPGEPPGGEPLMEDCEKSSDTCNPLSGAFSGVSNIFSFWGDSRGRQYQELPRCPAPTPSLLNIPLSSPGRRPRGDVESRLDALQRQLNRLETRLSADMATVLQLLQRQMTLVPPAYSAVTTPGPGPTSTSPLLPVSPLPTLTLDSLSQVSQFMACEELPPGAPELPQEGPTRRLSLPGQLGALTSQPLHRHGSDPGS
With `CCc1nnc(NC(=O)c2cccc(C(=O)Nc3nnc(CC)s3)n2)s1`, the “hERG current change (%, negative = inhibition) at 1uM” value came out at 4.29%. In the case of `COc1ccc(C(=O)OCC(=O)NCC2CCCCC2)cc1S(=O)(=O)N1CCCc2ccccc21`, the “hERG current change (%, negative = inhibition) at 1uM” value was determined as 13.6%. Next, `CCOc1cc(S(=O)(=O)NCCCN2CCOCC2)c(C)cc1C`: 1.48%. As for `Cc1ccc(C(=O)Nc2cc(C)c(OCC(=O)N3CCOCC3)c(C)c2)cc1`, the figure is -5.89%. Turning to `COc1ccc(-n2nc(C(=O)NCC(=O)NCCCN3CCN(C)CC3)c3ccccc3c2=O)cc1OC`, the “hERG current change (%, negative = inhibition) at 1uM” value turned out to be 12.3%.

For the molecule `O=C(C1CCCO1)N1CCN(C(=S)Nc2ccccc2F)CC1` (stereo not drawn), the “hERG current change (%, negative = inhibition) at 1uM” value is recorded as 4.51%.

Consider `COc1ccc(C(=O)N(Cc2nc(-c3ccc(C)cc3)no2)C2CCCCC2)cc1OC`, for which the “hERG current change (%, negative = inhibition) at 1uM” value was determined as 4.53%. Next, `CC(=O)c1cccc(NC(=O)CSc2nc(N3CCOCC3)nc(N3CCOCC3)n2)c1`: 9.89%; `COc1ccc(S(=O)(=O)N2CCCCCC2)cc1NS(=O)(=O)c1cc(C(=O)O)cc(C)c1C`: 1.73%. With `CSc1nc2c(c(=O)[nH]1)C(c1ccncc1)C(C(=O)OC(C)C)=C(C)N2` (stereo not drawn), the “hERG current change (%, negative = inhibition) at 1uM” value worked out at 6.55%. On to `Cc1ccccc1C(=O)OCc1cnc(Cl)s1`, for which the “hERG current change (%, negative = inhibition) at 1uM” value was found to be 15.9%. `Cn1c(=O)n(C)c2cc([N+](=O)[O-])c(N3CCNCC3)cc21`: the “hERG current change (%, negative = inhibition) at 1uM” value was 4.9%. `COC(=O)[C@H]1C2CCC(C(=O)OC)(CC2)[C@H]1C(=O)OC`: the “hERG current change (%, negative = inhibition) at 1uM” value was 17.8%.

As to `C[N+]1(C)CCc2cc3c(cc2[C@H]1[C@@H]1OC(=O)c2c1ccc1c2OCO1)OCO3.[Br-]`, the “hERG current change (%, negative = inhibition) at 1uM” value came to 13.1%. In the case of `O=C(c1ccc2c(=O)n3c(nc2c1)CCCCC3)N1CCN(c2ccccc2F)CC1`, the “hERG current change (%, negative = inhibition) at 1uM” value is 5.62%. As for `CCCc1ccc(C2C3=C(CC(C)(C)CC3=O)NC3=C2C(=O)c2ccccc23)cc1` (stereo not drawn), the figure is 2.48%; as for `O=C(Nc1cccc(S(=O)(=O)N2CCCCCC2)c1)C1CCC1`, 3.98%; as for `COc1cccc(CC(=O)NC2CCCN(Cc3ccccc3F)C2)c1` (stereo not drawn), -2.78%. With `COc1ccc(OC)c(N(CC(=O)Nc2ccccc2)S(C)(=O)=O)c1`, the “hERG current change (%, negative = inhibition) at 1uM” value stood at 18.4%. In the case of `CCc1ccc(C(C(=O)NCc2ccc(OC)cc2)N(CCOC)C(=O)Cc2cccs2)cc1` (stereo not drawn), the “hERG current change (%, negative = inhibition) at 1uM” value is 1.36%.

Turning to `Cc1ccc(C(=O)Sc2cccccc2=O)cc1`, the “hERG current change (%, negative = inhibition) at 1uM” value turned out to be 15.1%. In the case of `Cc1ccc(Cl)cc1N(CC(=O)NCc1ccc2c(c1)OCO2)S(C)(=O)=O`, the “hERG current change (%, negative = inhibition) at 1uM” value was -14.3%. Next, `Cc1ccc(S(=O)(=O)NCC(c2ccco2)N2CCc3ccccc32)cc1` (stereo not drawn): -5.38%; `O=C(COC(=O)c1sc2cc(F)ccc2c1Cl)Nc1ncc(Cl)cc1Cl`: 14.5%; `COC(=O)CCC(=O)OC1(C)C(=O)C=C2C=C(C3CC3)N(Cc3ccccc3)C=C2C1=O` (stereo not drawn): 15.8%. On to `COC(=O)c1cccc(S(=O)(=O)N2CCC(n3nnc4cc(F)ccc43)CC2)c1`, for which the “hERG current change (%, negative = inhibition) at 1uM” value is recorded as -0.319%. For the molecule `COc1cccc2cc(C(N)=O)oc12`, the “hERG current change (%, negative = inhibition) at 1uM” value is listed as 10.9%. As for `COc1cc(N=Cc2c(CO)cnc(C)c2O)cc(OC)c1OC`, the “hERG current change (%, negative = inhibition) at 1uM” value is reported as 12.8%. On to `COc1ccc(-c2cn[nH]c2-c2ccc(O)cc2O)cc1`, for which the “hERG current change (%, negative = inhibition) at 1uM” value was 9.74%.

Turning to `O=C(CC1OC(=O)c2ccccc21)Nc1cc(Cl)ccc1N1CCCC1` (stereo not drawn), the “hERG current change (%, negative = inhibition) at 1uM” value is 8.82%.

Regarding `CC(c1ccccc1)N1C(=O)/C(=C/c2ccncc2)SC1=S` (stereo not drawn), the “hERG current change (%, negative = inhibition) at 1uM” value was found to be 12.5%.

Take `C=CCn1c(SCC(=O)N2CCOCC2)nc2c([nH]c3ccccc32)c1=O`: the “hERG current change (%, negative = inhibition) at 1uM” value was -1.44%.

As for `O=C(Nc1ccc(Br)cc1)C1CCCN(S(=O)(=O)c2cccnc2)C1` (stereo not drawn), the “hERG current change (%, negative = inhibition) at 1uM” value was determined as 1.16%. Next, `O=C(CNC(=O)Cc1ccccc1)NCC(=O)N1CCCCC1` (PhAc-Gly-Gly-Piperidide): 3.75%; `CC(C)(C)C(=O)C(Cc1ccccc1)n1cncn1` (stereo not drawn): 11.1%. For the molecule `COc1ccc(N2CCN(C(=O)c3cccc(S(=O)(=O)N4CCCc5ccccc54)c3)CC2)cc1`, the “hERG current change (%, negative = inhibition) at 1uM” value is on record as -8.14%.

Turning to `COc1ccc(C)cc1S(=O)(=O)n1cnc2ccccc21`, the “hERG current change (%, negative = inhibition) at 1uM” value came out at 11.2%. With `COc1ccc(C(=O)Oc2ccc3ccc(=O)oc3c2)cc1`, the “hERG current change (%, negative = inhibition) at 1uM” value was 22.4%. `CSc1nc2ccc(C)cc2c(=O)n1-c1cccnc1`: the “hERG current change (%, negative = inhibition) at 1uM” value was 2.22%. Next, `O=C(NC1CC1)C1CCCN(C(=O)Nc2ccc(F)cc2)C1` (stereo not drawn): 6.04%; `C/C(Cn1ncc(N2CCOCC2)c(Cl)c1=O)=N\O`: 16.2%. `CN(Cc1ccccc1)Cc1nc2c(c(=O)n(C)c(=O)n2C)n1Cc1ccc(F)cc1`: the “hERG current change (%, negative = inhibition) at 1uM” value is -5.95%. For the molecule `CCOC(=O)N/N=C/c1cccc(Cl)c1Cl`, the “hERG current change (%, negative = inhibition) at 1uM” value amounted to 10.7%. Regarding `O=C(COc1ccccc1)Nc1nnc(-c2ccc(Cl)s2)o1`, the “hERG current change (%, negative = inhibition) at 1uM” value turned out to be 4.99%. Next, `Cn1c(=O)c2c(nc(OCCc3ccccc3)n2C)n(C)c1=O`: 13.7%.
